Test results from PubChem BioAssay AID624417 (National Center for Advancing Translational Sciences (NCATS), 2012).
Values joined by “and” are separate entries in the source; they are usually repeats but may differ in a detail not shown here. Identical values can stand only once. About 6,400 (1.6%) of roughly 410,000 compounds were called active. The inconclusive results got no clear call from the source; some entries with a clear call stand among them for comparison. Calls come from the whole dose curve; as a rule, active = well fitted inhibition curve with a large enough effect; inconclusive = small, poorly fitted or top-dose-only effect; inactive = no such curve, though single readings can be large or run the other way. Potencies beside an inconclusive call are fits to weak or partial responses and may not hold up.

These compounds were tested against Glucagon-like peptide 1 receptor (Homo sapiens) (UniProt P43220) (assay: qHTS of GLP-1 Receptor Inverse Agonists (Inhibition Mode)). Conditions: HEK293 GLP-1R CRE-luciferase, luminescence, 24 h, GLP-1R form is constitutively active; activity change, negative = inhibition: at 38.3 µM (top of the series) unless noted.
Sequence of UniProt P43220 (P43220 whole entry, looked up): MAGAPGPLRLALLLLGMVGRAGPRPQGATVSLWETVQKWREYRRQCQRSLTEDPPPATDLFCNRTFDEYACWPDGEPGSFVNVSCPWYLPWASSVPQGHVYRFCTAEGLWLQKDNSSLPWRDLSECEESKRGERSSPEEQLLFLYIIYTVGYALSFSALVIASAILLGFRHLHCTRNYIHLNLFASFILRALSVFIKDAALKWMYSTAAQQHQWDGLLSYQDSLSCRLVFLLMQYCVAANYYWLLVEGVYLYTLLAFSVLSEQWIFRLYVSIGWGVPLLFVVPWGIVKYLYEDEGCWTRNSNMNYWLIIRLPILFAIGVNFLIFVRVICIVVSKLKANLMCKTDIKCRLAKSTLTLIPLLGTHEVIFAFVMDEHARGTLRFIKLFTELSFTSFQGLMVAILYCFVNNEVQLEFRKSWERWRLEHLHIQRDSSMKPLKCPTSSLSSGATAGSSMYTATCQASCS
Outline: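 HEK293 cells stably co-expressing a cAMP-responsive luciferase reporter and constitutively active GLP-1R were seeded, incubated 12 h, then exposed to compounds for 24 h at 37 C. Luminescence was read 12 min after detection reagent; inverse agonists lower signal.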
% is set by controls: 0 for no effect and ±100 for the full control effect; potency is the fitted concentration of half-maximal effect; tags give direction and shape of the fitted curve.
Note: nearly all actives have a fitted effect of over 55% in size.

Row | SMILES | activity change, negative = inhibition | Potency
1 | CCCC12CN3CC(CCC)(CN(C1)C3c1ccc(OC(C)C)cc1)C2=O (configuration not stated) | inactive: 10.3% | –
2 | O=C(NCc1cccs1)C1CCCN(S(=O)(=O)c2ccc3c(c2)OCO3)C1 (configuration not stated) | – | inconclusive: 10 µM [inhibitor, single point]
3 | CC(=O)N1N=C(c2c(-c3ccccc3)c3cc(C)ccc3[nH]c2=O)CC1c1ccco1 (configuration not stated) | – | inconclusive: 11.2 µM [inhibitor, partial curve, poor fit]
4 | CCOc1cc2c3c(c1)C1(C(=O)N3C(C)(C)CC2C)C(C#N)=C(N)N2C(=C1C#N)Nc1ccccc12 (configuration not stated) | – | inconclusive: 28.2 µM [inhibitor, single point]
5 | CCN(Cc1ccccc1)Cc1nc(CCc2ccccc2)no1 | – | inconclusive: 14.1 µM [inhibitor, single point]
6 | Cc1ccc(NC(=O)CNc2cccc(S(=O)(=O)N3CCOCC3)c2)cc1F | – | inconclusive: 20 µM [inhibitor, partial curve, poor fit]
7 | CCN(C(=O)CSc1ccc2ccccc2n1)C1CCCCC1 | – | inconclusive: 7.94 µM [inhibitor, partial curve, poor fit]
8 | O=C(NC(=S)NCCC1=CCCCC1)c1ccc(Br)o1 | – | inconclusive: 28.2 µM [inhibitor, single point]
9 | CCN(CC)c1nc(C#N)cc(-c2ccc(OC)cc2)n1 | – | inconclusive: 12.6 µM [inhibitor, partial curve, poor fit]
10 | O=C(NCCc1ccccc1)c1ccc(Cn2c(SCc3ccccc3F)nc3cccnc32)cc1 | – | inconclusive: 14.1 µM [inhibitor, single point]
11 | COC(=O)CNc1cc(S(=O)(=O)N2CCCCC2)ccc1Oc1cccc(C)c1 | – | inconclusive: 12.6 µM [inhibitor, partial curve, poor fit]
12 | Cc1cccc2cc(CN(CC3CCCO3)C(c3nnnn3Cc3ccco3)C(C)C)c(=O)[nH]c12 (configuration not stated) | – | inconclusive: 11.2 µM [inhibitor, partial curve, poor fit]
13 | CCOC(=O)CN1C(c2ccc(O)cc2)Nc2ccc(Br)cc2C1c1ccccc1 (configuration not stated) | – | inconclusive: 14.1 µM [inhibitor, single point]
14 | CCN(CC(=O)Nc1ccc(OC(F)F)cc1)C1CCCCC1 | – | inconclusive: 15.8 µM [inhibitor, partial curve, poor fit]
15 | CCn1c(=O)c(C(=O)NCc2ccccc2)c(O)c2ccccc21 | inactive: -8.84% | –
16 | CSCCC(NC(=O)c1ccc(Cl)c([N+](=O)[O-])c1)C(=O)N1CCN(C/C=C/c2ccccc2)CC1 (configuration not stated) | – | inconclusive: 10 µM [inhibitor, partial curve, poor fit]
17 | Cc1ccc(NC(=S)Nc2nc(CC(=O)Nc3ccccc3)cs2)cc1 | inactive: -5.26% | –
18 | O=C(CCC1CCCC1)NNC(=O)COc1ccc(Br)cc1 | – | inconclusive: 12.6 µM [inhibitor, single point]
19 | CCCN(CCC)Cc1c(C(=O)N/N=C/c2ccc(Br)cc2)nnn1-c1nonc1N | – | inconclusive: 11.2 µM [inhibitor, partial curve, poor fit]
20 | N#Cc1c(N)nc(SCC(=O)OCc2ccccc2)c(C#N)c1-c1ccco1 | inactive: 5.05% | –
21 | COc1ccc(-n2nc3cc(C)c(NC(=O)Cc4ccc(Cl)cc4)cc3n2)cc1 | inactive: 9.12% | –

Row | SMILES | activity change, negative = inhibition | Potency
22 | COc1ccc(-c2nc(CN3CCN(c4ncnc5ccccc45)CC3)c(C)o2)c(OC)c1 | – | inconclusive: 5.62 µM [inhibitor, partial curve, poor fit]
23 | O=C1c2ccccc2C(Nc2ccc(F)c(Cl)c2)N1Cc1ccco1 (configuration not stated) | – | inconclusive: 11.2 µM [inhibitor, partial curve, poor fit]
24 | O=C(/C=C/c1cccc([N+](=O)[O-])c1)NC(=S)Nc1ccc(CN2CCOCC2)cc1 | inactive: 11.9% | –
25 | O=C(COc1ccccc1F)N1N=C(c2cccs2)CC1c1ccco1 (configuration not stated) | – | inconclusive: 28.2 µM [inhibitor, single point]
26 | COc1ccc(CN(C)C(=O)c2ccc(OCC(=O)Nc3cccc(C(F)(F)F)c3)c(OC)c2)cc1 | – | inconclusive: 28.2 µM [inhibitor, single point]
27 | COC(=O)C1=C(C(=O)OC)N2C=CC=CC2(C)C(C(=O)OC)=C1C(=O)OC (configuration not stated) | inactive: 10.6% | –
28 | O=C(c1ccco1)N(Cc1ccc(Cl)cc1)C1CCS(=O)(=O)C1 (configuration not stated) | – | inconclusive: 28.2 µM [inhibitor, single point]
29 | CCOC(=O)C1=C(Nc2ccccc2)CC(C)(O)C(C(=O)OCC)C1c1ccc(Cl)cc1 (configuration not stated) | – | inconclusive: 6.31 µM [inhibitor, partial curve, poor fit] and inconclusive: 11.2 µM [inhibitor, single point]
30 | CC(C)c1c(C(=O)N/N=C/c2cccs2)nnn1-c1nonc1N | – | inconclusive: 1 µM [inhibitor, full curve, poor fit]
31 | Cc1ccc(NC(=O)c2ccc(Cl)cc2Cl)cc1O | – | inconclusive: 28.2 µM [inhibitor, partial curve, poor fit]
32 | CC(=O)Nc1cc(-c2ccoc2)cn2c(-c3ccccc3)cnc12 | inactive: 0.283% | –
33 | CC(C)C1N=C2c3ccccc3N=C(SCC(=O)c3ccc(O)c(O)c3)N2C1=O (configuration not stated) | – | inconclusive: 28.2 µM [inhibitor, single point]
34 | CCOc1ccc(NC(=O)Nc2nc(SCC)ns2)cc1 | – | inconclusive: 15.8 µM [inhibitor, single point]
35 | O=C(/C=C/c1ccco1)NC(=S)Nc1ccccc1 | – | inconclusive: 15.8 µM [inhibitor, single point]
36 | CCCOC1(C(F)(F)F)NC(=O)N(c2cccc(Cl)c2)C1=O (configuration not stated) | – | inconclusive: 28.2 µM [inhibitor, single point]
37 | CC(=O)Nc1cccc(-c2ccnc3c2CC(C)(C(=O)NCc2ccc(F)c(F)c2)O3)c1 (configuration not stated) | – | inconclusive: 3.98 µM [inhibitor, full curve, poor fit]
38 | Cc1ccc2c(CC(=O)N3CCN(S(=O)(=O)c4ccc5c(c4)OCCO5)CC3)coc2c1 | – | inconclusive: 5.01 µM [inhibitor, partial curve, poor fit]
39 | Cc1cc(Cl)ccc1NC(=S)NCc1ccc(F)cc1 | – | inconclusive: 14.1 µM [inhibitor, partial curve, poor fit]
40 | Cc1ccc(NC(=O)C2CCN(c3ncnc4sc(C)c(C)c34)CC2)cc1S(=O)(=O)N(C)C | – | inconclusive: 11.2 µM [inhibitor, single point]
41 | S=C(NCc1ccccc1)Nc1ccc(Oc2ccccc2)cc1 | – | inconclusive: 12.6 µM [inhibitor, partial curve, poor fit]
42 | Cc1ccc(NC(=O)c2noc3c2CCCCC3)cc1 | – | inconclusive: 28.2 µM [inhibitor, single point]

Row | SMILES | activity change, negative = inhibition | Potency
43 | O=C(NCc1ccccc1F)c1cccc(S(=O)(=O)N2CCCCCC2)c1 | – | inconclusive: 28.2 µM [inhibitor, single point]
44 | CC(C)Oc1ccc(CNC(=O)c2ccc3c(c2)N(C)CCS3)cc1 | – | inconclusive: 22.4 µM [inhibitor, single point]
45 | CSc1nc2c(sc3ccccc32)c(=O)n1Cc1ccc(C)cc1 | inactive: 7.22% | –
46 | COC(=O)N/N=C/c1cn(CCCOc2ccc(C)cc2)c2ccccc12 | – | active: 8.91 µM
47 | COc1ccccc1Cn1c(=S)[nH]c2cc(C(=O)NCC3CCCO3)ccc2c1=O (configuration not stated) | inactive: -33.4% | –
48 | COc1cc(NC(=O)C(=O)NNC(=O)C2CCCCC2)c(OC)cc1Cl | – | inconclusive: 28.2 µM [inhibitor, single point]
49 | C/C(=N\NC(=O)c1ccccc1)c1cccc(Br)c1 | inactive: 3.17% | –
50 | Cc1ccn2c(=O)c(C(=O)NC3CCCCC3C)c(O)nc2c1 (configuration not stated) | – | inconclusive: 2 µM [inhibitor, full curve, poor fit]
51 | COc1ccc(-c2csc(NCCc3nc4cc(Cl)c(N5CCCCC5)cc4n3CCOCCO)n2)cc1 | – | inconclusive: 14.1 µM [inhibitor, partial curve, poor fit]
52 | COc1cc(NC(=O)c2ccc(N)nc2)cc(C(=O)Nc2cccc(C(F)(F)F)c2)c1 | – | inconclusive: 17.8 µM [inhibitor, single point] and inconclusive: 11.2 µM [inhibitor, single point]
53 | CCOC(=O)C1(CCc2ccccc2)CCN(Cc2cc(OC)c(OC)cc2OC)CC1 | – | inconclusive: 28.2 µM [inhibitor, single point]
54 | CCCN1CCN(CC2=C(C(=O)OCC)C(c3ccc(OC(C)C)cc3)NC(=O)N2)CC1 (configuration not stated) | inactive: 11.3% | –
55 | CCN(C(=S)NCc1ccccc1)c1cccc2ccccc12 | – | inconclusive: 5.62 µM [inhibitor, full curve, poor fit]
56 | CC/C(=N\NC(=S)Nc1cccc(C)c1)c1ccccc1 | – | inconclusive: 22.4 µM [inhibitor, single point]
57 | CCOc1ccc(S(=O)(=O)NCCc2c(C)[nH]c3c(Cl)cccc23)cc1C | – | inconclusive: 14.1 µM [inhibitor, single point]
58 | CCCCCCCCN1C(=O)[C@H](CC(=O)NCCCCc2ccccc2)C[C@@]2(C(=O)OCC)CCCC=C12 | – | active: 7.08 µM
59 | Cc1c(C(=O)Nc2ccc(F)c(C(F)(F)F)c2)sc2nc(-c3ccccc3)cn12 | inactive: -3.19% | –
60 | CCOC(=O)[C@H]1[C@H]2COc3ccc(Cl)cc3[C@@H]2N2C(=O)c3ccc(Cl)cc3NC(=O)[C@@]12C | – | inconclusive: 11.2 µM [inhibitor, single point]
61 | O=C(N/N=C/c1ccc(Sc2ccccn2)o1)c1cc2ccccc2cc1O | inactive: -3.6% | –
62 | NCC(c1ccccc1)c1c[nH]c2ccccc12 (configuration not stated) | – | inconclusive: 22.4 µM [inhibitor, partial curve, poor fit]
